Test results published in paper PMC4336329 (PLoS ONE, 2015).
In all, about 310,000 compounds went through this assay and about 2,200 (0.71%) showed an effect of 50% or more. Effects have a minus sign here. Some of the results follow.

Each compound was assayed against human ether-à-go-go-related gene (hERG) potassium channel (human, UniProt Q12809) (assay: primary screen, population patch clamp on CHO cells stably expressing hERG).
human ether-à-go-go-related gene (hERG) potassium channel, sequence (Q12809 whole entry, looked up): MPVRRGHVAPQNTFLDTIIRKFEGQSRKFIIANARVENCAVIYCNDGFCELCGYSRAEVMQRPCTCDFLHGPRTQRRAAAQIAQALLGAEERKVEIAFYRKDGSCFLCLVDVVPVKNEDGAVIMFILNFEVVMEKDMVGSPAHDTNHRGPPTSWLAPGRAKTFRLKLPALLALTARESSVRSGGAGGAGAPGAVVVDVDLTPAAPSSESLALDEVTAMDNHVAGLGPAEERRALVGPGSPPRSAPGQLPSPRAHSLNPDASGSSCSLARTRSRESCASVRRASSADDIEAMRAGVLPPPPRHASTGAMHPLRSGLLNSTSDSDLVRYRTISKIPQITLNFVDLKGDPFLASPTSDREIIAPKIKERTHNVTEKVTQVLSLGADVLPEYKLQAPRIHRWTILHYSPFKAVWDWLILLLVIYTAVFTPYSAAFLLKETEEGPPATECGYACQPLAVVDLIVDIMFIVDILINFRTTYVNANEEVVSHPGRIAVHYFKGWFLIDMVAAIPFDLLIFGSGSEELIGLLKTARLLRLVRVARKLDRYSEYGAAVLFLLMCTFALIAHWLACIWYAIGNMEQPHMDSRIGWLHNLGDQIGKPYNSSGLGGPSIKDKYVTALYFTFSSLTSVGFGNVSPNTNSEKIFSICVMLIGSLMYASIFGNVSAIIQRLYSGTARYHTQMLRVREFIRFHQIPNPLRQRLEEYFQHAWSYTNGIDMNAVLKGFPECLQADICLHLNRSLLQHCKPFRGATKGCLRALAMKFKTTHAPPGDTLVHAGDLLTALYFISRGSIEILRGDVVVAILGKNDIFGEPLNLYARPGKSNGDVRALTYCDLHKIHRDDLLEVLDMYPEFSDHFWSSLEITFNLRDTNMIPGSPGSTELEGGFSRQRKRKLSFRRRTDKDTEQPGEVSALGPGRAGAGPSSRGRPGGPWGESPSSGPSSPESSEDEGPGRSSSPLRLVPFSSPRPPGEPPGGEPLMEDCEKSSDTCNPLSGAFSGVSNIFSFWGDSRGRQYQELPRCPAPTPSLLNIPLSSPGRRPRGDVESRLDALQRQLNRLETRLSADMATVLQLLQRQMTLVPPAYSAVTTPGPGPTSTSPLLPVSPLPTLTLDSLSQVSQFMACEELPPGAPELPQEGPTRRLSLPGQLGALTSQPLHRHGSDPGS

| Compound | hERG current change (%, negative = inhibition) at 1uM |
| --- | --- |
| CCC1CCCCN1c1ccc([N+](=O)[O-])cc1/C=N/NC(=O)Cn1c2ccccc2c(=O)c2ccccc21 (centres unmarked) | 5.27% |
| O=C(Nc1cc(S(=O)(=O)N2CCOCC2)ccc1N1CCCC1)c1cccnc1Cl | 8.29% |
| C=CCOc1ccccc1CN1CCC(C(=O)Nc2cccc(-c3ccn[nH]3)c2)CC1 | 36.9% |
| COC(=O)C(O)(CC(=O)Nc1ccc(C)c(F)c1)C(F)(F)F (centres unmarked) | 14% |
| Cn1nnnc1SCc1cc(=O)[nH]c2ccccc12 | 6.55% |
| CC1=C(/C=C/C(C)=N\NC(=O)c2ccncc2)C(C)(C)CCC1 | 5.92% |
| CN(CC(=O)Nc1ccccc1Cl)C(=O)COC(=O)Cc1ccc(F)cc1 | 5.61% |
| O=C(CSc1nnc(-c2ccccc2)n1CC1CCCO1)N1CCCC1 (centres unmarked) | 5.92% |
| Cc1cc(F)ccc1NC(=O)C1CCN(S(=O)(=O)c2ccc3c(c2)CCCC(=O)N3)CC1 | 17.4% |
| O=C(Nc1ccc(Oc2ccccc2)nc1)C1CCCCN1Cc1cccc(O)c1 (centres unmarked) | 11% |
| Cc1cc(NC(=O)CCC(=O)N(CC(=O)NCC2CCCO2)c2cccc(F)c2)no1 (centres unmarked) | 11.7% |
| Cc1ccc(S(=O)(=O)NCC(=O)OCCOc2cccc(Cl)c2)cc1 | 15.8% |
| CCOC(=O)c1c(C)c(C(=O)NCc2ccc(OC)cc2)c(C)n1C | 15.9% |
| COC(=O)c1c(C)[nH]c(C(=O)/C=C/c2ccc(Cl)cc2)c1C | 9.67% |
| COc1ccccc1NC(=O)COc1cccc2c1CCNC2=O | -5.71% |
| CC(C)C(C(=O)NCC1CCCO1)N(C(=O)CNS(=O)(=O)c1ccc(F)cc1)C1CCCCC1 (centres unmarked) | 4.69% |
| Cc1onc(-c2ccccc2Cl)c1C(=O)N1CCN(C/C=C/c2ccccc2)CC1 | -9.12% |
| CCc1nc2ccccc2n1CC(O)COc1ccc(NC(C)=O)cc1 (centres unmarked) | 18.3% |
| COc1ccc(-c2cc(CNS(=O)(=O)c3ccc(NC(C)=O)cc3)on2)cc1 | 11.6% |
| COc1ccc(-c2oc3cccnc3c2C#CC2(O)CCCCC2)cc1 | 6.61% |
| Cc1cc(C(=O)N/N=C/C=C/c2ccc(Br)cc2)n[nH]1 | 3.44% |
| Cc1ccccc1C(=O)NC1CC2CCCC(C1)N2Cc1ccccc1 (centres unmarked) | 3.02% |

| Compound | hERG current change (%, negative = inhibition) at 1uM |
| --- | --- |
| O=C(CC1SC(N2CCCCC2)=NC1=O)Nc1cccc(C(F)(F)F)c1 (centres unmarked) | 11.1% |
| O=C(COc1ccccc1[N+](=O)[O-])N1CCC(Cc2ccccc2)CC1 | 11.6% |
| Cc1ccc(S(=O)(=O)N2CCC(C(=O)Nc3ccccc3N3CCCC3)CC2)c(C)c1 | 16.5% |
| COC(=O)c1sccc1NC(=O)C12CC3CC(CC(C3)C1)C2 | 20.9% |
| CCCCc1nc2ccccc2n1Cc1nnc2n1-c1ccccc1SC2 | -29.1% |
| COc1ccc(CNC(=O)C2CCC(CNc3c(N4CCC(C)CC4)c(=O)c3=O)CC2)cc1 (centres unmarked) | 13.6% |
| CNC(=S)c1cc(C(C)(C)C)c(O)c(C(C)(C)C)c1 | 10.4% |
| CC(C)NC(=S)N/N=C1\CCCc2ccccc21 | 9.25% |
| CCCCn1c(N)c(N(CC(C)C)C(=O)c2cc(-c3ccc(OC)c(OC)c3)nc3ccccc23)c(=O)[nH]c1=O | -0.632% |
| CS(=O)(=O)Nc1cccc(C2=NN(S(C)(=O)=O)C(c3ccc4c(c3)OCO4)C2)c1 (centres unmarked) | -11.3% |
| CC(C)COCC(O)CC(Cc1ccccc1)C(=O)NN (centres unmarked) | 18.1% |
| O=C(CNC(=O)c1cccc(F)c1)OCC(=O)N1CCN(C(=O)c2ccco2)CC1 | 22.1% |
| Cc1ccc(C(=O)CCC(=O)OCC(=O)N(CC(C)C)c2c(N)n(Cc3ccccc3)c(=O)[nH]c2=O)cc1 | -16.6% |
| COc1ccc(NC(=O)CSc2nc(O)cc(=O)[nH]2)c(OC)c1 | 11.2% |
| Cc1nc(=O)c(-c2ccccc2)c(C)n1-c1ccccc1C(=O)O | 17.9% |
| c1ccc(Oc2nc(N3CCOCC3)nc(N3CCOCC3)n2)cc1 | -2.67% |
| CCn1c(SCC(=O)Nc2nc3ccccc3s2)nnc1-c1ccc(OC)cc1 | 1.57% |
| O=C(CSc1nnc(NC(=O)c2ccc(F)cc2F)s1)NC1CC1 | 14.9% |
| CC(C)[N+](C)(CCC(C(N)=O)(c1ccccc1)c1ccccc1)C(C)C.[I-] | 16.6% |
| Cc1nnc(SCC(=O)NC23CC4CC(CC(C4)C2)C3)s1 | 9.96% |
| Cc1ccc(NC(=O)C2CCCN(S(=O)(=O)c3cccnc3)C2)cc1C (centres unmarked) | 9.65% |
| CC(C)C[C@H](NC(=O)c1nc[nH]c1C(=O)N1CC[NH2+]CC1)C(=O)OC(C)(C)C.[Cl-] | 1.97% |

| Compound | hERG current change (%, negative = inhibition) at 1uM |
| --- | --- |
| CCOc1cccc(/C=C/c2ccc3cccc(O)c3n2)c1OC | 9.13% |
| COc1cc2c(C(=O)Nc3ccc4c(c3)OCO4)cn(CC(C)C)c(=O)c2cc1OC | 15.1% |
| CCCOC(=O)c1c(NC(=O)CCCn2nc([N+](=O)[O-])c(Cl)c2C)sc(C(=O)OC)c1C | 5.75% |
| O=C(NCc1ccc(F)cc1)c1ccc(CNc2c(N3CCOCC3)c(=O)c2=O)cc1 | 13.9% |
| NC(=O)NC(=O)CC1S/C(=N/N=C2\CSC(=O)N2)NC1=O (centres unmarked) | 6.42% |
| O=S(=O)(N1CCCCC1)N1CCN(CC(O)COc2ccc3cc(Br)ccc3c2)CC1 (centres unmarked) | 3.6% |
| COc1ccc(/C=C(/NC(=O)c2ccccc2)C(=O)N/N=C/c2sccc2C)cc1 | 3.48% |
| Cc1cc(C)nc(N2CCCC(C(=O)Nc3nc4ccc(S(C)(=O)=O)cc4s3)C2)n1 (centres unmarked) | -1.99% |
| COc1ccccc1C1C(C(=O)c2ccco2)=C(O)C(=O)N1c1cc(C)on1 (centres unmarked) | 3.73% |
| O=C(Nc1nc2ccc(S(=O)(=O)N3CCOCC3)cc2s1)c1cccs1 | 13.3% |
| Brc1ccc2c(c1)C(c1ccc(N3CCOCC3)cc1)=NNC(c1cccs1)=N2 | 8.38% |
| Cc1ccc(CN2CCN(CC(=O)N3CCC(C(N)=O)CC3)C2=O)cc1 | 9.62% |
| O=C(Nc1nnc(SCc2ccccc2Cl)s1)C1COc2ccccc2O1 (centres unmarked) | 17.7% |
| OCCNC(=S)Nc1ccc2c(c1)OCCO2 | 11.7% |
| Cn1cccc1/C=N/NC(=O)c1cccnc1 | 11.2% |
| COc1ccc(NC(=O)CSc2nc3[nH]c(=O)cc(O)c3s2)cc1OC | 9.53% |
| O=C(NCC(=O)N(Cc1ccccc1)C(C(=O)NC1CCCCC1)c1ccco1)c1ccco1 (centres unmarked) | -10.8% |
| Cc1cc(C(=O)NCCc2ccc(Cl)cc2)c2ccccc2n1 | -0.0711% |
| O=C(NCc1cccc(C(F)(F)F)c1)C1CCN(c2ncccn2)CC1 | -16.6% |
| O=C(Cn1cc2c(n1)CCCC2)Nc1cc(-c2cccc(Cl)c2)no1 | 10.7% |
| CCCCn1c(N)c(N(CCOC)C(=O)CSCc2cccc(C)c2)c(=O)[nH]c1=O | 16.5% |
| CCCCCc1nnc(NC(=O)C2CCCO2)s1 (centres unmarked) | 8.58% |

| Compound | hERG current change (%, negative = inhibition) at 1uM |
| --- | --- |
| COc1ccccc1NC(=S)N1CCN(Cc2ccc3c(c2)OCO3)CC1 | 13.7% |
| COc1ccc(CCNC(=O)c2cccc([N+](=O)[O-])c2)cc1OC | 3.3% |
| O=C(/C=C/Nc1cccc(O)c1)c1ccccc1 | 12.5% |
| CCN(CC)C(=O)c1csc(Nc2ccc(C)cc2)n1 | -12.1% |
| COc1ccc(-c2cc3ccc(OCc4nn[nH]n4)cc3oc2=O)cc1 | -12.2% |
| CC(C)C(C)NC(=O)COc1ccc([N+](=O)[O-])cc1Cl (centres unmarked) | 6.92% |
| CCCc1nnc(NC(=O)CCC(=O)N2CCN(Cc3ccc(C)cc3C)CC2)s1 | -2.14% |
| C=C1c2cc(C)ccc2NC(=O)N1c1ccc(C)cc1 | 10.6% |
| O=C(O)[C@@H]1CSC2c3ccccc3C(=O)N21 (some centres unmarked) | 13.9% |
| CN1C(=O)[C@H]2[C@@H](C3CC3)N3C(=O)CN(CC4CC4)C(=O)[C@@]3(C)[C@H]2C1=O | 16.9% |
| CN(C)CCNc1ccc(Cl)cc1[N+](=O)[O-] | 1.54% |
| CCCN1C2CCCC1CC(NC(=O)NC13CC4CC(CC(C4)C1)C3)C2 (centres unmarked) | -11.7% |
| Cc1ccccc1NC(=O)C1C2CCCCC21 (centres unmarked) | 3.79% |
| CC1CC(C)CN(S(=O)(=O)c2ccc3c(c2)oc(=O)n3CC(=O)N2CCOCC2)C1 (centres unmarked) | 10.6% |
| Cc1ccnc(NC(=O)C(C)n2cc([N+](=O)[O-])cn2)c1 (centres unmarked) | 8.07% |
| CC(=O)Nc1ccc(S(=O)(=O)NC2(C(F)(F)F)NC(=O)N(Cc3ccccc3)C2=O)cc1 (centres unmarked) | 19.3% |
| COc1cccc(CN(C)C(=O)c2ccc(NC(=O)CC3SC(N4CCCC4)=NC3=O)cc2)c1OC (centres unmarked) | 2.54% |
| O=C(COC(=O)c1ccccc1OCc1ccc(F)cc1)NCC1CCCO1 (centres unmarked) | 5.17% |
| COC(=O)C1=C(c2ccc(OC)c(OC)c2)C[C@@H]2CC[C@H]1N2C(=O)NCCO | 6.3% |
| Cc1ccc(NC(=O)Cc2ccccc2Cl)cc1S(=O)(=O)N(C)C | 7.27% |
